Experimental data: PubChem BioAssay AID588855 (National Center for Advancing Translational Sciences (NCATS), 2011)
The campaign covered roughly 410,000 compounds. About 5,000 (1.2%) were called active. This list was built around the results that the source calls inconclusive (neither active nor inactive); the mix of calls is not that of the screen. The call rests on the fitted dose curve; in most records, active means well fitted inhibition curve with a large enough effect; inconclusive means small, poorly fitted or top-dose-only effect; inactive means no such curve, though single readings can be large or run the other way. Potencies of inconclusive entries are doubtful fits and often do not repeat.

Test: qHTS for Inhibitors of TGF-b; further: nearly all actives have a fitted effect of over 65% in size
Details: HepG2 CAGA-GFP TGF-b/SMAD3 reporter, GFP fluorescence, 18 h, TGF-beta stimulated, 500 pg/mL final; series mostly up to 46.1 µM
Summary of the method: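 Per well, imaged GFP fluorescence of HEPG2 CAGA-GFP cells gives the signal; cells get compound, then TGF-beta (500 pg/mL final), 18 h at 37 degrees C; %Activity versus -TGF-beta and +DMSO controls.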
Potency means the concentration at half of the fitted maximal effect; tags describe the fitted curve by direction and shape.

| SMILES | Potency |
| --- | --- |
| Cc1ccc(C(=O)Nc2ccc(C)c(S(=O)(=O)Nc3ccccc3Cl)c2)s1 | inconclusive: 11.2 µM [inhibitor, single point] |
| CN(CC(=O)Nc1cc(S(=O)(=O)N2CCCC2)ccc1Cl)Cc1cccs1 | inconclusive: 20 µM [inhibitor, single point] |
| O=S(=O)(c1ccccc1)N1CCN(C(=S)Nc2ccccc2)CC1 | inactive |
| Cc1ccc(OCCSc2nc(-c3cccs3)nc3cc(=O)[nH]n23)cc1Cl | inconclusive: 22.4 µM [inhibitor, single point] |
| CO[C@H]1O[C@H](CBr)[C@@H](OC(=O)c2ccccc2)[C@H](O)[C@H]1O | inactive |
| O=C(CSc1c2c(nc3ccccc13)CCC2)Nc1ccc(F)cc1F | inconclusive: 28.2 µM [inhibitor, single point] |
| COc1ccccc1/C=C/C(=O)OCC(=O)Nc1ccccc1Sc1ccccc1 | inconclusive: 5.62 µM [inhibitor, single point] |
| COc1ccc(NC(=O)CN(C)C(=O)c2cn(-c3ccccc3)nc2-c2ccc(Cl)cc2)cc1 | inconclusive: 25.1 µM [inhibitor, single point] |
| Cc1ccc(C2(C(=O)N3CCC(n4nc(-c5ccccc5)oc4=O)CC3)CC2)cc1 | inconclusive: 22.4 µM [inhibitor, single point] |
| COc1cccc(-c2cnc(NCc3cc(Cl)ccc3O)n2C)c1 | inconclusive: 35.5 µM [inhibitor, single point] |
| COc1cc(NC(=O)c2cccs2)c(OC)cc1NC(=O)CCn1nnc2ccccc21 | inactive |
| Cc1ccccc1-n1nc(C)c2cc(C(=O)N3CCN(S(=O)(=O)c4ccc(F)cc4)CC3)sc21 | inconclusive: 15.8 µM [inhibitor, single point] |
| Cc1cccc(N2C(=O)CC(n3ccnc3)C2=O)c1C (stereo not given) | inactive |
| CCOC(=O)Nc1cccc(OCC(=O)Nc2ccc3c(c2)CCC3)c1 | inconclusive: 20 µM [inhibitor, single point] |
| CC(C)(C)OC(=O)N1CCC(CC2CC(c3ccc(Cl)cc3)=NO2)(C(=O)NCC2CCCCC2)CC1 (stereo not given) | inconclusive: 35.5 µM [inhibitor, single point] |
| COc1ccccc1OCC(O)Cn1c(=N)n(Cc2ccccc2)c2ccccc21 (stereo not given) | inactive |
| CCO[C@H]1OC(C(=O)N2CCN(Cc3ccc4c(c3)OCO4)CC2)=C[C@@H](C2CCCCC2)[C@@H]1CCCO | inconclusive: 35.5 µM [inhibitor, single point] |
| COc1ccc(NC(=S)Nn2cnnc2)cc1OC | inconclusive: 0.501 µM [inhibitor, full curve, poor fit] |
| COc1cc(CNCc2ccc(OC)cc2OC)cc(OC)c1 | inconclusive: 35.5 µM [inhibitor, single point] |
| Cc1ccc(S(=O)(=O)NNc2ccccc2)c(C)c1 | inactive |
| NN=C1c2ccccc2-c2ccc(N)cc21 | inactive |
| Cc1ccc(S(=O)(=O)N2CCC(C(=O)Nc3cc(C)ccc3C)CC2)cc1 | inconclusive: 35.5 µM [inhibitor, single point] |

| SMILES | Potency |
| --- | --- |
| O=C(Cc1ccccc1[N+](=O)[O-])N1CCc2ccccc2C1 | inconclusive: 3.55 µM [inhibitor, single point] |
| CC(=O)c1c(C(C)=O)c(C)n(NC(=O)c2ccncc2)c1C | inconclusive: 11.2 µM [inhibitor, single point] |
| CCCN(CCC)CCCNC(=O)c1cc2c(-c3ccc(Cl)cc3)nn(C)c2s1 | inconclusive: 35.5 µM [inhibitor, single point] |
| CCOc1ccc(NC(=O)COC(=O)c2cc(S(=O)(=O)N3CCCC3)ccc2C)cc1 | inconclusive: 11.2 µM [inhibitor, partial curve] |
| Cc1ccc2nc(C3CCCN(C(=S)Nc4ccccc4C)C3)[nH]c2c1 (stereo not given) | inconclusive: 35.5 µM [inhibitor, single point] |
| COc1ccc(NC(=O)Nc2ccc(Cc3ccncc3)cc2)cc1OC | inactive |
| C=CCC1(N(C(C)=O)c2ccccc2C)CCCCC1 | inconclusive: 0.708 µM [inhibitor, full curve, poor fit] |
| O=C(Cn1sc2ccccc2c1=O)Nc1ccc(Cl)cc1 | active: 11.2 µM |
| COC(=O)C1=C(N)Oc2cc(C)n(C)c(=O)c2C1c1ccc(Cl)cc1 (stereo not given) | inconclusive: 35.5 µM [inhibitor, single point] |
| CCN(CC(N)=O)S(=O)(=O)c1ccc(Br)cc1 | inconclusive: 5.62 µM [inhibitor, single point] |
| COc1ccc2c(c1)C1=C(CC2)C(c2ccc(C)cc2)NC(=S)N1 (stereo not given) | inconclusive: 14.1 µM [inhibitor, partial curve, poor fit] |
| CC(=O)N1CCCc2ccc(NS(=O)(=O)c3ccc(C)cc3)cc21 | inactive |
| COC(=O)c1ccc(C(=O)OC)c(-n2c(=O)c3ccccc3c3ccccc3c2=O)c1 | inconclusive: 20 µM [inhibitor, single point] |
| Cc1ccccc1CN1C(=O)c2ccccc2Sc2ccc(C(=O)N3CCOCC3)cc21 | inconclusive: 12.6 µM [inhibitor, single point] |
| CC(C)=C(NC(=O)c1ccco1)C(=O)NCCc1nc2ccccc2[nH]1 | inconclusive: 35.5 µM [inhibitor, single point] |
| S=C(Nc1ccc(Cl)cc1)NC1CCN(Cc2ccccc2)CC1 | inconclusive: 22.4 µM [inhibitor, single point] |
| O=c1cc(O)n(-c2ccc(F)cc2)c(=S)[nH]1 | inconclusive: 31.6 µM [inhibitor, single point] |
| Cc1ccc(N2C(=O)SC(N(CC(=O)O)c3cccc(C)c3)C2=O)cc1 (stereo not given) | inconclusive: 20 µM [inhibitor, partial curve, poor fit] |
| CC(=O)c1[nH]c(C)c(C(=O)NCc2ccc(Cl)cc2)c1C | inconclusive: 20 µM [inhibitor, partial curve, poor fit] |
| Cc1cc(F)ccc1NC(=O)CCS(=O)(=O)c1cccc2nsnc12 | inactive |
| Oc1ccc(Br)cc1C1C=C(c2ccc3c(c2)OCO3)NC(c2c(F)cccc2Cl)N1 (stereo not given) | inconclusive: 15.8 µM [inhibitor, single point] |
| COc1cc(C)c(S(=O)(=O)Nc2cccc(-c3ccc(N4CCCC4)nn3)c2)cc1C | inactive |

| SMILES | Potency |
| --- | --- |
| N#CC1(c2ccccc2)CCCN1C(=O)c1ccc(Br)cc1 (stereo not given) | inconclusive: 6.31 µM [inhibitor, single point] |
| O=S(=O)(Nc1cccc(Cl)c1)c1ccc(-n2cccn2)cc1 | inconclusive: 35.5 µM [inhibitor, single point] |
| Cc1cc(C)c2c(-n3cccc3)c(NC(=O)OCc3ccccc3)sc2n1 | inconclusive: 15.8 µM [inhibitor, single point] |
| Cc1ccc(C(=O)NCCSc2c(C)[nH]c3ccccc23)cc1C | inconclusive: 22.4 µM [inhibitor, single point] |
| Cc1ccc(NC(=O)CN2C(=O)CSc3ccc(S(=O)(=O)N(C)C)cc32)cc1C | inconclusive: 8.91 µM [inhibitor, partial curve] |
| Cc1ccc(CSC2=Nc3ccccc3C3=NC(CCC(=O)NCCc4ccccc4)C(=O)N23)cc1 (stereo not given) | inconclusive: 35.5 µM [inhibitor, single point] |
| COc1ccc(OCCC(=O)c2ccc(OC)cc2)cc1 | inconclusive: 15.8 µM [inhibitor, partial curve, poor fit] |
| Cc1csc(=O)n1CCC(=O)OCC(=O)NCc1ccc(Cl)cc1Cl | inconclusive: 6.31 µM [inhibitor, single point] |
| CCCCOc1ccc(-c2ncc(N)cn2)cc1 | inconclusive: 35.5 µM [inhibitor, single point] |
| CCCc1cc(=O)oc2cc(OCC(=O)Nc3cc(C)on3)ccc12 | inactive |
| Cc1cc2oc(C(=O)N3CCN(CCc4ccccn4)CC3)c(C)c2cc1C | inconclusive: 22.4 µM [inhibitor, single point] |
| CCOC(=O)C/C(C)=N/NC(=O)CNc1cccc(Cl)c1C | inconclusive: 35.5 µM [inhibitor, single point] |
| Cc1onc(-c2ccccc2)c1C(=O)OCC(=O)N(C)c1ccccc1 | inactive |
| O=C(COc1ccccc1[N+](=O)[O-])Nc1cccc(Cl)c1N1CCOCC1 | inconclusive: 11.2 µM [inhibitor, partial curve, poor fit] |
| NC(=O)NC(=O)C[n+]1cccc(/C=N/O)c1 | inconclusive: 0.398 µM [inhibitor, full curve, poor fit] |
| COc1ccc(CCNC(=O)c2cccc(S(=O)(=O)N3CCCCC3)c2)cc1 | inactive |
| CN(C)C(=O)CCc1ccc2c3c([nH]c2c1)[C@]1(CCc2ccccc2)[C@@H](C(=O)N2CCCCC2)C[C@H](CC(=O)NCc2cccc(C(F)(F)F)c2)C(=O)N1CC3 | inconclusive: 5.62 µM [inhibitor, partial curve] |
| Cc1noc(C)c1NC(=O)Nc1cccc2c1O[C@H](CN(C)S(=O)(=O)c1ccccc1)[C@@H](C)CN([C@H](C)CO)C2=O | inconclusive: 10 µM [inhibitor, partial curve, poor fit] |
| OC[C@H]1O[C@@H](c2nc3ccc(-c4nc(-c5ccc(Br)cc5)no4)cc3[nH]2)C[C@@H]1O | inactive |
| Cc1ccc(NC(=O)C2=CC(c3cccs3)=NS(=O)(=O)N2C)cc1 | inconclusive: 35.5 µM [inhibitor, single point] |
| O=C(CSc1nnc(-c2cccnc2)o1)Nc1ccccn1 | inconclusive: 35.5 µM [inhibitor, single point] |
